Data as given in PubChem BioAssay (NCATS).
Several values for one entry are separate records, joined by “and”; a condition that tells them apart may be missing. Identical values can stand only once. Inconclusive results, whose numbers are uncertain, are shown with a selection of clear calls. For part of these data: Where the call is inconclusive, the potency comes from a doubtful curve fit. Activity calls are given as the source filed them. Unless noted, calls follow the shape of the dose curve; as a rule, active = well fitted curve in the direction sought with a large enough effect; inconclusive = small, poorly fitted or top-dose-only effect, or another doubt; inactive = no such curve, though single readings can be large; an effect the other way counts as inactive or inconclusive.

Columns and labels:
[1] = Cell Viability - BJ (AID 421; calls by dose curve;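 also: potency is read from the fitted curve at half-maximal effect; cells exposed to compound for 40 hours at 37 °C before readout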); settings: BJ fibroblast viability, qHTS
How it was run: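 Cytotoxicity in human BJ foreskin fibroblasts is scored as loss of cellular ATP after a 40-hour exposure, measured by luciferase luminescence. Controls are DMSO and 100 uM tamoxifen.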

[2] = Cell Viability - Jurkat (AID 426;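 active = dose-dependent loss of cell ATP signal giving a full or clear fitted curve, ranked by lower potency value; inconclusive = weak partial curve or response only at the top dose; inactive = no loss of viability signal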;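 also: potency is read from the fitted curve at half-maximal effect; cells exposed to compound for 40 hours at 37 °C before ATP read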); settings: qHTS
How it was run: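 Cells of the human T-cell leukemia line Jurkat (E6-1) are seeded at 5000 per well, treated with compound across a concentration range for 40 hours at 37 °C, then lysed with CellTiter-Glo; luminescence reports ATP.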

[3] = Cell Viability - Hek293 (AID 427;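 active = compounds whose dose-response curve shows a full or clear partial loss of cell viability, called from curve shape rather than a numeric limit; inconclusive = weak partial curves or an effect only at the top dose; inactive = no dose-dependent loss of viability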;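 also: potency is read from the fitted curve at half-maximal effect; cells exposed to compound for 40 hours at 37 °C before reading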); settings: qHTS
How it was run: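 qHTS, human embryonic kidney (adenovirus-transformed) cells; 40 hr cpd, 37 °C; CellTiter-Glo ATP luminescence. Norm: DMSO = 0, 100 uM tamoxifen = 100% inhibition. Hill-fit AC50.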

[4] = Cell Viability - HepG2 (AID 433; calls by dose curve;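 also: potency is read from the fitted curve at half-maximal effect; potency for ATP loss meaning cytotoxicity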); settings: qHTS
How it was run: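 Cytotoxicity read as ATP loss (CellTiter-Glo luminescence) after 40 hr compound exposure of HepG2, 1500 cells/well, 37 °C. AC50 by Hill equation; 0% set by DMSO, 100% inhibition by 100 uM tamoxifen.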

[5] = Cell Viability - SK-N-SH (AID 435; calls by dose curve; also: potency is read from the fitted curve at half-maximal effect); settings: SK-N-SH neuroblastoma cell viability qHTS
How it was run: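 qHTS cytotoxicity: CellTiter-Glo ATP luminescence after 40 h compound exposure of human neuroblastoma SK-N-SH cells at 37 °C. AC50 derived by Hill-equation fitting, with DMSO as basal and 100 uM tamoxifen as full inhibition.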

[6] = target: Mitogen-activated protein kinase 10 (Mus musculus) (UniProt Q61831); experiment: JNK3 AlphaScreen Assay (AID 530; active = well fitted curve in either direction with a large enough effect, not every such curve was filed as active; inconclusive = small, poorly fitted or top-dose-only effect, or another doubt;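 also: kinase came from lysate of stimulated human HepG2 cells; signal reports phosphorylation of biotinylated GST-cJun 1-79 at Ser73 with 10 µM ATP; potency is read from the fitted curve at half-maximal effect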); settings: JNK3 lysate, c-Jun phosphorylation; activity change, negative = inhibition: at 57.1 µM (top of the series)
How it was run: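 Phosphorylation of biotinylated GST-cJun(1-79) at Ser73 is measured by AlphaScreen proximity luminescence. Enzyme is JNK3 in HepG2 lysates activated with interleukin-1beta and tumor necrosis factor alpha; ATP is 10 uM final.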

[7] = Cell Viability - N2a (AID 540); settings: N2a mouse neuroblastoma cell viability; activity change, negative = cytotoxicity: at 92.2 µM (top of the series);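 also: plate controls were DMSO alone for no effect and tamoxifen control for full effect; nearly all actives have a fitted effect of over 45% in size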
How it was run: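 Cytotoxicity was scored as loss of cellular ATP in N2a cells, a mouse neuroblastoma line. Compounds are applied in a qHTS concentration series for 40 hr at 37 °C.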

[8] = Cell Viability - NIH 3T3 (AID 541); settings: NIH 3T3 cell viability, qHTS; activity change, negative = cytotoxicity: at 92.2 µM (top of the series);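 also: plate controls were DMSO alone for no effect and tamoxifen positive control for full effect; nearly all actives have a fitted effect of over 25% in size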
How it was run: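 Cells seeded at 1000/well, rested 5 hr at 37 °C, then dosed and incubated 40 hr at 37 °C. CellTiter-Glo added, 20 min room temperature, luminescence read. AC50 by Hill fit.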

[9] = Cell Viability - HUV-EC-C (AID 542); settings: HUV-EC-C endothelial cell viability, qHTS; series mostly up to 92.2 µM; also: potency is read from the fitted curve at half-maximal effect; nearly all actives have a fitted effect of over 35% in size
How it was run: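 Cells were seeded at 1000 per well and incubated 5 hr at 37 °C before compound addition. After 40 hr at 37 °C, CellTiter-Glo reagent was added for 20 min and luminescence read. AC50 values came from Hill-equation modelling.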

[10] = Cell Viability - H-4-II-E (AID 543); settings: H-4-II-E rat hepatoma viability; series mostly up to 92.2 µM; also: potency is read from the fitted curve at half-maximal effect; nearly all actives have a fitted effect of over 35% in size
How it was run: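 Cells seeded at 1500 per well and rested 5 hr; compounds added; 40 hr incubation at 37 °C; CellTiter-Glo added, 20 min at room temperature; luminescence read. Hill-equation fits gave AC50.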

[11] = Cell Viability - Renal Proximal Tubule (AID 545); settings: renal proximal tubule cells viability, primary cells of rat origin; activity change, negative = cytotoxicity: at 91.7 µM (top of the series);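 also: 0% = DMSO only and -100% = 100 µM tamoxifen; nearly all actives have a fitted effect of over 40% in size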
How it was run: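 Viability taken as intracellular ATP (CellTiter-Glo luminescence) after 40 hr, 37 °C compound treatment of primary proximal tubule cells from rat kidney, 1000 cells/well; Hill-equation fits of qHTS concentration-response data gave AC50.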

[12] = Cell Viability - Mesenchymal (AID 546); settings: mesenchymal cells viability, qHTS; activity change, negative = cytotoxicity: at 91.7 µM (top of the series);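 also: cells exposed to compound for 40 hours before reading; 0% = DMSO only and -100% = 100 µM tamoxifen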
How it was run: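 In this qHTS cytotoxicity format, glomerulus-derived human mesenchymal kidney cells received compound for 40 hr, then luciferase-based ATP quantitation. Concentration-response data were fitted with the Hill equation.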

[13] = Cell Viability - LYMP1-002 - Assay at 16 hr (AID 948); settings: LYMP1-002 lymphoblastoid cell viability; series mostly up to 92.2 µM; also: potency is read from the fitted curve at half-maximal effect
How it was run: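 ATP luminescence (CellTiter-Glo) was measured after 16 hr compound exposure at 37 C of 2500 lymphoblastoid LYMP1-002 cells per well. Concentration-response curves were fitted with the Hill equation to give AC50.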

[14] = Cell Viability - LYMP1-003 - Assay at 40 hr (AID 964); settings: LYMP1-003 lymphoblastoid viability; series mostly up to 92.2 µM; also: potency is read from the fitted curve at half-maximal effect; nearly all actives have a fitted effect of over 60% in size
How it was run: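 Luminescent ATP signal (CellTiter-Glo) served as the viability read-out after 40 hr compound treatment of human lymphoblastoid LYMP1-003 cells at 37 C. Decreases in ATP were fitted with the Hill equation to give AC50.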

[15] = Cell Viability - LYMP2-003 (AID 965); settings: LYMP2-003 lymphoblastoid cell viability; series mostly up to 92.2 µM;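 also: potency is read from the fitted curve at half-maximal effect; cells exposed to compounds for 24 h before reading; nearly all actives have a fitted effect of over 50% in size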
How it was run: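 CellTiter-Glo luminescence quantified ATP loss after 24 h compound treatment of LYMP2-003 lymphoblastoid cells at 37 C. Titration series were fitted with the standard Hill equation to give AC50.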

[16] = Cell Viability - LYMP2-004 (AID 966); settings: LYMP2-004 lymphoblastoid cell viability, qHTS; series mostly up to 92.2 µM; also: potency is read from the fitted curve at half-maximal effect; nearly all actives have a fitted effect of over 65% in size
How it was run: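 qHTS cytotoxicity: human lymphoblastoid line, 24 hr compound treatment, 37 C, complete medium. Viability read as cellular ATP via luciferase luminescence; tetraoctylammonium bromide served as positive control.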

[17] = Cell Viability - LYMP2-013 (AID 970); settings: LYMP2-013 lymphoblastoid cells viability; activity change, negative = cytotoxic: at 92.2 µM (top of the series); also: potency is read from the fitted curve at half-maximal effect; nearly all actives have a fitted effect of over 55% in size
How it was run: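 Cytotoxicity is scored as a concentration-dependent drop in intracellular ATP in human lymphoblastoid cells after 24 hr compound exposure at 37 C. ATP is quantified by luciferase luminescence, and AC50 values come from Hill-equation modeling.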

[18] = Cell Viability - LYMP2-017 (AID 972); settings: LYMP2-017 lymphoblastoid cell viability; series mostly up to 92.2 µM; also: potency is read from the fitted curve at half-maximal effect; nearly all actives have a fitted effect of over 55% in size
How it was run: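 Cytotoxicity is scored as a concentration-dependent drop in cellular ATP in a human lymphoblastoid line after 24 hr treatment at 37 C. Values are AC50s from Hill-equation modelling.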

[19] = Cell Viability - LYMP2-019 (AID 973); settings: LYMP2-019 lymphoblastoid cell line viability; series mostly up to 92.2 µM; also: potency is read from the fitted curve at half-maximal effect; nearly all actives have a fitted effect of over 55% in size
How it was run: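 Cytotoxicity is scored as a concentration-dependent drop in cellular ATP after cells (2500/well) receive compound for 24 hr at 37 C. Tetraoctylammonium bromide serves as positive control.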

[20] = Cell Viability - LYMP2-021 (AID 974); settings: LYMP2-021 lymphoblastoid cells viability; series mostly up to 92.2 µM;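 also: potency is read from the fitted curve at half-maximal effect; compound exposure lasts 24 hours at 37 °C; nearly all actives have a fitted effect of over 55% in size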
How it was run: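 Loss of cellular ATP, measured with a luciferase-based CellTiter-Glo readout, serves as the toxicity signal in human lymphoblastoid cells treated for 24 hours at 37 C. Potency is reported as AC50 from a standard Hill model.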

[21] = Cell Viability - LYMP2-023 (AID 975); settings: LYMP2-023 lymphoblastoid cell viability; series mostly up to 92.2 µM
How it was run: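 Steps: seed 2500 human lymphoblastoid cells per well, incubate 5 hr at 37 C, add compound for 24 hr at 37 C, add CellTiter-Glo, hold 30 min at room temperature, read luminescence. AC50 derived by Hill modelling.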

[22] = Cell Viability - LYMP2-006 (AID 978); settings: LYMP2-006 lymphoblastoid cell viability, qHTS; series mostly up to 92.2 µM; also: potency is read from the fitted curve at half-maximal effect; nearly all actives have a fitted effect of over 60% in size
How it was run: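 Potency values are Hill-fit AC50s for decreases in intracellular ATP (CellTiter-Glo luminescence). LYMP2-006 lymphoblastoid cells, 2500 per well, were exposed to compound in complete culture medium for 24 hr at 37 C.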

[23] = Cell Viability - LYMP1-002 - Assay at 24 hr (AID 993); settings: LYMP1-002 lymphoblastoid cells viability; series mostly up to 92.2 µM; also: potency is read from the fitted curve at half-maximal effect
How it was run: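 Acute toxicity is measured as concentration-dependent loss of cellular ATP in a human lymphoblastoid line (Coriell LYMP1-002) after 24 h treatment in complete medium. ATP is quantified by luciferase luminescence and AC50 derived by Hill modelling.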

[24] = target: Estrogen receptor (Homo sapiens) (UniProt P03372); experiment: qHTS assay for small molecule agonists of estrogen receptor alpha signaling (AID 588514; calls by dose curve;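 also: 0% = vehicle only and 100% = reference agonist; nearly all actives have a fitted effect of over 70% in size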); settings: ER-alpha-UAS-bla HEK293, beta-lactamase ratio, 18 h; activation: at 76.8 µM (top of the series), percent of full estradiol response, vehicle zero
Sequence of UniProt P03372 (P03372 whole entry, looked up): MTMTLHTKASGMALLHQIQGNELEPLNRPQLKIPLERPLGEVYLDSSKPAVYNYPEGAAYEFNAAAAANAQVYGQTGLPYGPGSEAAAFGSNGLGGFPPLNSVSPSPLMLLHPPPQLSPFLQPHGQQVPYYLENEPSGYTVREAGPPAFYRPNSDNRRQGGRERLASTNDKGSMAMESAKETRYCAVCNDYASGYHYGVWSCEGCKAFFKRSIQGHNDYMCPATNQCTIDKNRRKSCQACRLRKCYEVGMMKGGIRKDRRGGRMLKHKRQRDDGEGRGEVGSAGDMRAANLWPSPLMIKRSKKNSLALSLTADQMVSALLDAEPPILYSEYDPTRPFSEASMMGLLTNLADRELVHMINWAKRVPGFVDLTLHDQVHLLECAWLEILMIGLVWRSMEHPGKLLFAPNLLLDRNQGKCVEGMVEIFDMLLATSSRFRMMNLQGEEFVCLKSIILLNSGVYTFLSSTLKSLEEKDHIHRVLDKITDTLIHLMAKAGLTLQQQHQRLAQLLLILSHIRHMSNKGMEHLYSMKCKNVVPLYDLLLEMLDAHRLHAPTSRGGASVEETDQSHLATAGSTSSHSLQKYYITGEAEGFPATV
How it was run: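 Efficacy is expressed against 20 nM 17-beta-estradiol (100%) and DMSO basal (0%); EC50 from Hill equation. Assay: beta-lactamase reporter in ER-alpha-UAS-bla HEK 293 cells, 18 h compound incubation, CCF4 detection.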

[25] = target: Androgen receptor (Homo sapiens) (UniProt P10275); experiment: qHTS assay for small molecule agonists of androgen receptor signaling (AID 588515; active = well fitted curve in the direction sought with a large enough effect in the signal ratio, with a control signal flat; inconclusive = small, poorly fitted or top-dose-only effect, or effect the other way, or a change in a side signal; inactive = no such curve, though single readings can be large or run the other way; the % refers to the signal ratio; also: % is scaled to controls: 0 for no effect and ±100 for the full control effect); settings: AR-UAS-bla HEK293, beta-lactamase ratio, agonist 16 h; activation: hits give high values
Sequence of UniProt P10275 (P10275 whole entry, looked up): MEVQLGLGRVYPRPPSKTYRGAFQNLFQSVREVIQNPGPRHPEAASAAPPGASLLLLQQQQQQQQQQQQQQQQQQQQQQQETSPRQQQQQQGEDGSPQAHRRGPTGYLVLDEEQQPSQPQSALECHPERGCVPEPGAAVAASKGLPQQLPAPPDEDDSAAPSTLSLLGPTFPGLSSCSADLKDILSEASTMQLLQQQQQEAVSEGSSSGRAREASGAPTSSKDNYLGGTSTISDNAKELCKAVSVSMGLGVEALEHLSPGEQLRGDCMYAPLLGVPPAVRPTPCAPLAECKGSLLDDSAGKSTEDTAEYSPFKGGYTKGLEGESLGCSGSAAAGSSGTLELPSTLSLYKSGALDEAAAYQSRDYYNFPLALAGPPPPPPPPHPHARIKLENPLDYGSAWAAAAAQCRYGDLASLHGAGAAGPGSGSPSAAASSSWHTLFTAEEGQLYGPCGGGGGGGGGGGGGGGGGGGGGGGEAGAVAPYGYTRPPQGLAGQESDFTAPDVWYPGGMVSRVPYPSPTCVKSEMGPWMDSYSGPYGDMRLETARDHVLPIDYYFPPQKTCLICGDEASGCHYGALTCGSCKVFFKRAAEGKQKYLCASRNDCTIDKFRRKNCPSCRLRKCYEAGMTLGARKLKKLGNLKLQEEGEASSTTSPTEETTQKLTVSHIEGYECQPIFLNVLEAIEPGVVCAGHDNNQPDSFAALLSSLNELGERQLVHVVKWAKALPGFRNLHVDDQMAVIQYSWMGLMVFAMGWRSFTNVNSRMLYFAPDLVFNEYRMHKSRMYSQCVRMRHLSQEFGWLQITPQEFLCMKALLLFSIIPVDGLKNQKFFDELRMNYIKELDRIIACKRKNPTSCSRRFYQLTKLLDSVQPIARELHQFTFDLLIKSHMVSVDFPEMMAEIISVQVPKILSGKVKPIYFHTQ
How it was run: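 Stimulation of an AR-responsive β-lactamase reporter in GripTite HEK293 cells was measured after 16 h compound exposure at 37 °C, via CCF4 fluorescence after 2 h RT. EC50 from Hill fits, normalized to R1881 at 30 nM.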

[26] = target: Peroxisome proliferator-activated receptor delta (Homo sapiens) (UniProt Q03181); experiment: qHTS assay for small molecule antagonists of peroxisome proliferator-activated receptor delta signaling (AID 588535; active = well fitted inhibition curve with a large enough effect in the signal ratio, with a control signal flat, not every such curve was filed as active; inconclusive = small, poorly fitted or top-dose-only effect, or effect the other way, or a change in a side signal; inactive = no such curve, though single readings can be large or run the other way; the % refers to the signal ratio); settings: HEK293T PPARd-UAS-bla, beta-lactamase FRET ratio, 18 h; activity change, negative = inhibition: at 76.7 µM (top of the series)
Sequence of UniProt Q03181 (Q03181 whole entry, looked up): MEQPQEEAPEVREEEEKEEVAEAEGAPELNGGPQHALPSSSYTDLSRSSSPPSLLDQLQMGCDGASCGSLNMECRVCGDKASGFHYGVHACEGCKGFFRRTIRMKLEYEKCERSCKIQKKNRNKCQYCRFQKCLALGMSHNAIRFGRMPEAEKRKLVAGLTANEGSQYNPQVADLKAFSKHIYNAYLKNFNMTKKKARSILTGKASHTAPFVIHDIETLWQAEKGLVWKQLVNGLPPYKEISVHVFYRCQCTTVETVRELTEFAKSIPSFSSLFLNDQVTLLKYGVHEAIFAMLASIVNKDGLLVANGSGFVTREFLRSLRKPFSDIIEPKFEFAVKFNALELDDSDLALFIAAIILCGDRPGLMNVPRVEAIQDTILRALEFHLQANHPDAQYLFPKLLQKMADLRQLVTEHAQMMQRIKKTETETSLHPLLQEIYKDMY
How it was run: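 Inhibition of PPAR-delta response element-driven beta-lactamase expression is measured in HEK293T cells exposed to a compound titration series for 18 hrs at 37 C. Half-maximal inhibition comes from Hill equation fitting.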

[27] = target: Thyroid hormone receptor beta (Homo sapiens) (UniProt P10828); experiment: qHTS assay for small molecule antagonists of thyroid hormone receptor beta signaling (AID 588547; active = well fitted inhibition curve with a large enough effect in the signal ratio, with a control signal flat, not every such curve was filed as active; inconclusive = small, poorly fitted or top-dose-only effect, or effect the other way, or a change in a side signal; the % refers to the signal ratio;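 also: cells stimulated with 0.4 nM T3 agonist during compound exposure; % is scaled to controls: 0 for no effect and ±100 for the full control effect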); settings: TR-UAS-bla HEK293, beta-lactamase ratio, antagonist mode, 18 h
Sequence of UniProt P10828 (P10828 whole entry, looked up): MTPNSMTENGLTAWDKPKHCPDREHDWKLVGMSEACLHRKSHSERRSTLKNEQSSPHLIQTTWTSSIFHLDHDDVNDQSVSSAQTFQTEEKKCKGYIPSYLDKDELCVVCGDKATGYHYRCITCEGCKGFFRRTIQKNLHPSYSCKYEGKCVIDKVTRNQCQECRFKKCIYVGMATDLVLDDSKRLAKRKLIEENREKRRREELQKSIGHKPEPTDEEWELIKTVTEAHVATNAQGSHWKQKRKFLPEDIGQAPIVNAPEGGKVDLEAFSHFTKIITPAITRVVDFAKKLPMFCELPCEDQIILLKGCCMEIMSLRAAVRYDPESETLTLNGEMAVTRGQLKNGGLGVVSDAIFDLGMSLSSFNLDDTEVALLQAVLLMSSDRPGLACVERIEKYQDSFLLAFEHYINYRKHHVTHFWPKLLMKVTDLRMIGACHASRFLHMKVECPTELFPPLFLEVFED
How it was run: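 TR-UAS-bla GripTite HEK293 cells in 2% charcoal/dextran FBS medium were preincubated 4 h at 37 C, given compound (0.59 nM to 92 uM) plus 0.4 nM T3 (final) for 18 h, then CCF4 for 2 h at RT; Hill fit gave IC50.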

[28] = qHTS assay for small molecule disruptors of the mitochondrial membrane potential - 5 hr assay (AID 651755; calls by dose curve; also: % is scaled to controls: 0 for no effect and ±100 for the full control effect; nearly all actives have a fitted effect of over 40% in size); settings: JC-1-type ratio dye; ratio change, negative = disruption: at 92.2 µM (top of the series)
How it was run: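 Seed HepG2 overnight, add compound, incubate 5 hr at 37C and 5% CO2, stain 30 min with Mito-MPS, then measure monomer (490/535 nm) and aggregate (540/590 nm) fluorescence.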

[29] = target: Tumor necrosis factor (Homo sapiens) (UniProt P01375); experiment: qHTS assay to identify small molecules that stimulate Tumor Necrosis Factor-alpha (TNF-alpha) secretion (AID 651757; active = well fitted curve in the direction sought with a large enough effect in the signal ratio; inconclusive = small, poorly fitted or top-dose-only effect, or a change in a side signal; inactive = no such curve, though single readings can be large or run the other way; the % refers to the signal ratio; also: potency is read from the fitted curve at half-maximal effect); settings: Human cells, HTRF 665/615 ratio; activation (TNF-alpha secretion): at 92.2 µM (top of the series)
Sequence of UniProt P01375 (P01375 whole entry, looked up): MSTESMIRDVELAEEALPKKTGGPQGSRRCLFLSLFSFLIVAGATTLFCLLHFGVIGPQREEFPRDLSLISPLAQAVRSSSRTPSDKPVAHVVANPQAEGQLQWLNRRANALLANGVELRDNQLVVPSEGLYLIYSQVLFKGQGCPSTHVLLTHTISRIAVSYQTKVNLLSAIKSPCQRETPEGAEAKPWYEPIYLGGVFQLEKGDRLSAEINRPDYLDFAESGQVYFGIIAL
How it was run: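 Human monocytic THP-1 cells are plated, treated with compound and held at 37 C for 17 hrs. Labeled anti-TNF-alpha antibody mixture is then added; after 3 hr at room temperature, TR-FRET signal reports secreted TNF-alpha.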

[30] = qHTS assay to identify small molecules that stimulate interleukin-8 (IL-8) secretion (AID 651758; active = well fitted activation curve with a large enough effect in the signal ratio; inconclusive = small, poorly fitted or top-dose-only effect, or effect the other way, or a change in a side signal; the % refers to the signal ratio; also: potency is read from the fitted curve at half-maximal effect); settings: HTRF ratio (665/615); activation: at 92.2 µM (top of the series)
How it was run: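 Quantitative HTS in THP-1 monocytic cells at 2000 cells per well, with 16 hrs compound incubation at 37 C. IL-8 in the medium was then quantified by HTRF immunoassay, read after 1-3 hrs at room temperature.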
Tags tell the direction and shape of the fitted curve.

Compound: O=[N+]([O-])c1cc(N(CCO)CCO)ccc1NCCO
- Potency [1]: inconclusive: 132 µM [single point]
- Potency [2]: inconclusive: 123 µM [partial curve]
- Potency [3]: inconclusive: 132 µM [partial curve]
- Potency [4]: inconclusive: 105 µM [partial curve]
- Potency [5]: inconclusive: 120 µM [partial curve]
- Potency [6]: inconclusive: 39.8 µM [inhibitor, single point]
- activity change, negative = cytotoxicity [7]: inconclusive: -51.6%
- activity change, negative = cytotoxicity [8]: inconclusive: -37.5%
- Potency [9]: inconclusive: 50.1 µM [falling, partial curve, poor fit]
- Potency [10]: inconclusive: 39.8 µM [falling, partial curve]
- activity change, negative = cytotoxicity [11]: inconclusive: -50%
- activity change, negative = cytotoxicity [12]: inconclusive: -48.1%
- Potency [13]: inconclusive: 50.1 µM [cytotoxic, partial curve]
- Potency [14]: inconclusive: 50.1 µM [cytotoxic, partial curve]
- Potency [15]: inconclusive: 39.8 µM [cytotoxic, partial curve]
- Potency [16]: inconclusive: 3.98 µM [cytotoxic, partial curve, poor fit]
- Potency [17]: inconclusive: 50.1 µM [cytotoxic, partial curve, poor fit]
- Potency [18]: inconclusive: 50.1 µM [cytotoxic, partial curve]
- Potency [19]: inconclusive: 39.8 µM [cytotoxic, partial curve]
- Potency [20]: inconclusive: 39.8 µM [cytotoxic, partial curve]
- Potency [21]: inconclusive: 50.1 µM [cytotoxic, partial curve]
- Potency [22]: inconclusive: 50.1 µM [cytotoxic, partial curve, poor fit]
- Potency [23]: inconclusive: 39.8 µM [cytotoxic, partial curve]
- activation [24]: inconclusive: 61.2%
- activation [25]: inactive: 15% and inactive: 1.64%
- Potency [26]: inactive
- activity change % (negative = inhibition) [27]: inactive: 14.2% and inactive: 12%
- ratio change, negative = disruption [28]: inconclusive: -26.5%
- Potency [29]: inconclusive: 47.3 µM [rising, partial curve]
- Potency [30]: inconclusive: 42.2 µM [rising, partial curve]
